Laboratory results: the supplement of paper PMC10441789
The list shows a part of the results. Antibody binding of pooled human sera (four to six donors per pool; dilution not stated) to peptides of the Trypanosoma cruzi antigen TSSA on microarrays. Quantile-normalised fluorescence in arbitrary units, mean of duplicate arrays; higher = more binding. No active / inactive call. The uninfected pools are read here as the healthy donors of the same country. The strongest signals lie near the top of the scale (about 60,000).

What was measured:
Assay in all cases: antibody binding signal (normalised fluorescence) (arbitrary fluorescence units); higher = stronger serum antibody binding to peptide
[1] = system: pooled sera of chronic Chagas disease patients, Argentina
Description: (§1)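 Microarray of 15-residue peptides over residues 30-55 of Trypanosoma cruzi TSSAII, each with 1 to 10 substitutions at naturally variable positions, probed with one serum pool per country.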

[2] = system: pooled sera of chronic Chagas disease patients, Bolivia
Description: as §1

[3] = system: pooled sera of chronic Chagas disease patients, Brazil
Description: as §1

[4] = system: pooled sera of chronic Chagas disease patients, Colombia
Description: as §1

[5] = system: pooled sera of chronic Chagas disease patients, Mexico
Description: as §1

[6] = system: pooled sera of chronic Chagas disease patients, USA
Description: as §1

[7] = system: pooled sera of uninfected people, Argentina
Description: as §1

[8] = system: pooled sera of uninfected people, Bolivia
Description: as §1

[9] = system: pooled sera of uninfected people, Brazil
Description: as §1

[10] = system: pooled sera of uninfected people, Colombia
Description: as §1

[11] = system: pooled sera of uninfected people, Mexico
Description: as §1

[12] = system: pooled sera of uninfected people, USA
Description: as §1

Row | Sequence | antibody binding signal [1] | antibody binding signal [2] | antibody binding signal [3] | antibody binding signal [4] | antibody binding signal [5] | antibody binding signal [6] | antibody binding signal [7] | antibody binding signal [8] | antibody binding signal [9] | antibody binding signal [10] | antibody binding signal [11] | antibody binding signal [12]
1 | KDNKTAAGEAPSPSG | 810 | 232 | 707 | 2050 | 267 | 4350 | 474 | 161 | 172 | 273 | 87.8 | 174
2 | ISTPPSGTEKKAATG | 35300 | 2160 | 29800 | 484 | 20900 | 4860 | 1000 | 364 | 149 | 552 | 111 | 174
3 | ENKAATGGAPSQPGA | 677 | 4300 | 23200 | 872 | 550 | 3920 | 350 | 148 | 196 | 300 | 310 | 212
4 | GTENKTATGGTPSQP | 33000 | 1950 | 1230 | 2270 | 1190 | 1430 | 399 | 403 | 365 | 251 | 1930 | 137
5 | KAAAGETPSQSGASS | 174 | 2560 | 9270 | 179 | 193 | 284 | 225 | 355 | 154 | 212 | 895 | 182
6 | TPPSGTDNKAATGGT | 33600 | 44300 | 51100 | 1220 | 7820 | 11200 | 899 | 538 | 2330 | 275 | 276 | 286
7 | KDNKPATGEAPSPSG | 46600 | 35000 | 47700 | 243 | 200 | 43700 | 985 | 908 | 256 | 293 | 298 | 136
8 | ENKTATGGTPSPPGA | 365 | 2450 | 780 | 425 | 378 | 649 | 259 | 159 | 441 | 674 | 182 | 157
9 | PSGTDKKPATGEAPS | 43200 | 42500 | 49000 | 5030 | 1760 | 38500 | 860 | 1320 | 515 | 564 | 3790 | 276
10 | PPSGKENKTATGETP | 12600 | 7100 | 4360 | 1440 | 1800 | 6280 | 1800 | 1640 | 249 | 913 | 265 | 277
